Among all 310,000 compounds or so, about 14,000 (4.5%) showed an effect of 50% or more. The effect is printed as a negative number. This is one part of the list.
What follows are compounds tested against human ether-à-go-go-related gene (hERG) potassium channel (human, UniProt Q12809) (assay: primary screen, population patch clamp on CHO cells stably expressing hERG).
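Also: peak tail current of the secondary pulse compared with the same well before compound.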

Sequence of human ether-à-go-go-related gene (hERG) potassium channel (Q12809 whole entry, looked up): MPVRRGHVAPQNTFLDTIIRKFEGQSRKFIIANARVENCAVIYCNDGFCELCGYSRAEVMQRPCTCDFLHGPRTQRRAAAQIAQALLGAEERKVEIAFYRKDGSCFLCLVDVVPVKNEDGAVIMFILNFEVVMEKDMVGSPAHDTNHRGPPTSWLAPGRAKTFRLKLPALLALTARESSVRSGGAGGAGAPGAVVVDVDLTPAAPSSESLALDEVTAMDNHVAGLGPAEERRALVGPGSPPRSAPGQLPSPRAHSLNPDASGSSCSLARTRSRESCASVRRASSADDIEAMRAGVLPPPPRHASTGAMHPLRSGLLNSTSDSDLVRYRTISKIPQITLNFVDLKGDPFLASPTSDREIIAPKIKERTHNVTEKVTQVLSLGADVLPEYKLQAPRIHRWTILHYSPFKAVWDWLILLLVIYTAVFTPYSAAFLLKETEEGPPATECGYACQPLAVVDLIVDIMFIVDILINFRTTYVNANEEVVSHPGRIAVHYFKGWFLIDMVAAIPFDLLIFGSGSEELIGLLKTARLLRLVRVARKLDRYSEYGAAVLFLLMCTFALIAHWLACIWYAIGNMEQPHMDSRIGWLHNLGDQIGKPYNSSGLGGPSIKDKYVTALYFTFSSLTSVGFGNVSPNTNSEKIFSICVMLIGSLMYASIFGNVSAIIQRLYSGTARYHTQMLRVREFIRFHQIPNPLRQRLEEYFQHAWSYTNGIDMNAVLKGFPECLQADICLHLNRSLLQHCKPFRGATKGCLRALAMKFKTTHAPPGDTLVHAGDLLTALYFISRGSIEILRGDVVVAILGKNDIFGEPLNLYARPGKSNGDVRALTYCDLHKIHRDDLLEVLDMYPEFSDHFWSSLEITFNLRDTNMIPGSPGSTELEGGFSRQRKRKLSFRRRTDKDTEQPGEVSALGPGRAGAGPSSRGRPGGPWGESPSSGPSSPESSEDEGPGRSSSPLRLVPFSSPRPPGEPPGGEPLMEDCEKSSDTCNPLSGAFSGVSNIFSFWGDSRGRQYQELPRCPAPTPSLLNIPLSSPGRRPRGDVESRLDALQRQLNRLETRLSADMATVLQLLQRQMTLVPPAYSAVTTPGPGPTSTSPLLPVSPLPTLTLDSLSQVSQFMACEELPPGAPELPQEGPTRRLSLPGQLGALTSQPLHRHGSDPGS

SMILES | hERG current change (%, negative = inhibition) at 10uM [%]
CSc1ccc(Cl)c(C(=O)Nc2ccc(C)cn2)c1 | 12.1
CCCC/C(=N\O)c1c[nH]c2ccccc12 | -4.11
CCC(=O)Nc1ccc(-c2csc(C)n2)cc1 | -4.34
Cc1cccc(-n2c(O)c(C=Nc3ccccc3O)c3ccccc3c2=O)n1 | 6.45
CCCCNCCCOc1cccc(Cl)c1Cl | -23.6
CN(C(=O)C1CCCO1)C1CCS(=O)(=O)C1 (stereo not shown) | -0.467
Cc1oc(-c2ccccc2)nc1CS(=O)CC(=O)NC1CCCCCC1 (stereo not shown) | -11.5
CCN(CC)CCN(C(=O)c1ccc2c(c1)CCCC2)c1nc2ccc(C)cc2s1.Cl | 10.1
Cc1nn(CCOc2ccccc2)c(=O)n1-c1ccc(F)cc1 | -2.37
CC(=O)c1nnn(-c2ccc(F)cc2F)c1C | 11.8
CCCCN(C)CCNC(=O)Cn1ncc2c(=O)oc3ccc(C)cc3c21 | -27.2
Clc1ccc(SCc2cn3ccsc3n2)cc1 | -12.3
CC(C)(C)Oc1ccccc1Nc1nc(NCCO)nc(N2CCCC2)n1 | -6.92
CCN(c1ccccc1)S(=O)(=O)c1ccc(Cl)c(NC(=O)CSc2n[nH]c(N)n2)c1 | -15.3
CCN1/C(=C\C(=S)Nc2ccccc2)Sc2ccccc21 | 10.3
Cc1ccc(OCC(=O)Nc2ccc3c(c2)C(=O)N(CCC(=O)O)C3=O)cc1 | -16.5
O=C(c1ccncc1)N1CCN(S(=O)(=O)c2ccccc2Br)CC1 | 4.86
CN(C)S(=O)(=O)c1ccc(S(=O)(=O)N2CCCC2)cc1 | 8.88
Cc1ccc(NC2=C(Cl)C(=O)OC2OC(=O)c2ccco2)cc1C (stereo not shown) | -46.5
CCOC(=O)c1cc2sc(C)cc2n1CC(=O)N1CCOCC1 | 7.06
NC(=O)C1CCN(C(=O)C2c3ccccc3C(=O)N3CCc4ccccc4C23)CC1 (stereo not shown) | -13.2
CCN1C(=O)[C@H]2[C@@H](c3ccc(-c4ccc5c(c4)OCO5)c(OC)c3)N[C@@](Cc3ccccc3)(C(=O)OC)[C@H]2C1=O.O=C(O)C(F)(F)F | 11

SMILES | hERG current change (%, negative = inhibition) at 10uM [%]
CCOC(=O)N1CC=C2C(C#N)=C(N)C(C#N)(C#N)[C@H](c3ccc(OC(C)C)c(OCC)c3)[C@H]2C1 | -4.36
CCOC(=O)C1(Cc2ccc(Cl)cc2)CCN(Cc2ccon2)CC1 | -49.5
CC(C)(C)C(=O)Nc1cccc(-c2cc(-c3c(Cl)cccc3Cl)no2)c1 | -4.59
Cc1cccn2c(CNCC3OCCc4ccccc43)c(C(=O)N3CCCCC3)nc12 (stereo not shown) | -19.5
Cc1ccsc1/C=N/NC(=O)CO | 15.3
CCCn1c(=O)c(C(=O)NNC(=O)c2cccc([N+](=O)[O-])c2)c(O)c2ccccc21 | -21.7
O=C(COc1ccc2ccc(=O)oc2c1)NCC(O)c1ccccc1 (stereo not shown) | 5.75
CC(=O)N1CCc2c(sc(NC(=O)Cc3ccc(C)cc3C)c2C#N)C1 | 9.76
O=c1[nH]c(C2CCCN(S(=O)(=O)c3ccc(F)cc3)C2)nc2c1nnn2Cc1ccc(F)cc1 (stereo not shown) | -25.8
OCCC1CN(CCCc2ccccc2)CCN1Cc1ccccc1 (stereo not shown) | -64
CN(CC(=O)O/N=C(\N)c1ccc([N+](=O)[O-])cc1)S(=O)(=O)c1ccccc1 | -17.3
Cc1nnc(SCC(=O)NCc2ccccc2)s1 | 12.6
O=P(OCC(F)(F)C(F)F)(N1CCCCC1)N1CCCCC1 | 0.612
COc1ccc(/C=C(\NC(=O)c2ccc(C)cc2)C(=O)NCCCN2CCOCC2)cc1OC | 19.9
CCOC(=O)c1sc2nc(C)nc(NCc3cccnc3)c2c1C | -9.36
O=C1CC(NCc2ccc3c(c2)OCO3)C(=O)N1Cc1ccc2c(c1)OCO2 (stereo not shown) | -4.06
CCOC(=O)COc1ccc(/C=C/[N+](=O)[O-])c(OCC(=O)OCC)c1 | 2.96
C/C(=N\N1CCN(C)CC1)c1c(O)[nH]c(=O)[nH]c1=O | 5.21
COc1ccccc1CNc1cc(C)ccn1 | 7.76
c1ccc(-n2nc3ccccc3n2)cc1 | 0.848
COCCN(Cc1ccccc1)C(=O)Cc1ccc(S(=O)(=O)N2CCOCC2)s1 | -22.5

From paper PMC4336329 (PLoS ONE, 2015)
